# From PMC7451430
# T1: EspB protein of Mycobacterium tuberculosis, full length (1-460) (Mycobacterium tuberculosis), P9WJD9
# T1 chain: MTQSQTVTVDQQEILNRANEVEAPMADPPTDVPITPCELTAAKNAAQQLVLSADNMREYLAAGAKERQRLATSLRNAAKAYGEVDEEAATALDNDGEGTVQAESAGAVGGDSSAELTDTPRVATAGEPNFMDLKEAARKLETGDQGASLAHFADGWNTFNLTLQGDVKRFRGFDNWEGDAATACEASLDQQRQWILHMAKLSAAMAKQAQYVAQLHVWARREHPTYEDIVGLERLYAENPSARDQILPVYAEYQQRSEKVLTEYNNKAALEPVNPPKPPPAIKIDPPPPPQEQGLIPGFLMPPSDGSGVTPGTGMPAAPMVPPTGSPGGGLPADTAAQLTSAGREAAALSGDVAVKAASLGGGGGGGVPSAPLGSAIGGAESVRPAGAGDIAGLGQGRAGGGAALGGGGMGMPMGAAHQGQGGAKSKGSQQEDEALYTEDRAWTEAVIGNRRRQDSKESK
# Target: T1, EspB protein of Mycobacterium …
# Assay: cryo-EM structure
# Conditions: remark: other sources report otherwise
binder,measurement,value
"EspB protein of Mycobacterium tuberculosis, full length (1-460), P9WJD9 1-460 (natural protein) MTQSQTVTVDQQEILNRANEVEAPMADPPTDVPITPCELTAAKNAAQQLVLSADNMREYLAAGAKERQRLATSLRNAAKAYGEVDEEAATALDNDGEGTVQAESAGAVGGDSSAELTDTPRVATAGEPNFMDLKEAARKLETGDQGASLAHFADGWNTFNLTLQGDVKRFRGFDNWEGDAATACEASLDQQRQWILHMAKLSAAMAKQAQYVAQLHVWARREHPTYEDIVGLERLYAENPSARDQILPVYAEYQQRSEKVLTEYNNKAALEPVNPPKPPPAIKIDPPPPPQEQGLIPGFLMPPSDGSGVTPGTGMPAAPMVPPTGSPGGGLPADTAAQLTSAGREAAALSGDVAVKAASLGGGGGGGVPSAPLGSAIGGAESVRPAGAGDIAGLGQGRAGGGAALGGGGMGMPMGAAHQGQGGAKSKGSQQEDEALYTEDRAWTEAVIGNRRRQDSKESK",stoichiometry N,7
